Experimental data reported in a collection of fitness landscapes (doi:10.1038/s41467-024-54723-y).
Whole data set: some 18,000 sequences, median “TetR repression strength (sort-seq, GFP reporter)” near 0.23, cut for the highest 2% near 0.68. The list shows a part of the results.

target: TetR (class B, Tn10) (UniProt P04483); assay: TetR repression strength (sort-seq, GFP reporter) (relative to tetO2 = 1); higher = stronger repression; conditions: E. coli
Method in brief: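 Escherichia coli SIG10-MAX cells carried a low-copy plasmid library in which eight operator positions were randomized between a constitutive promoter and sfGFP, and TetR was expressed constitutively. After 5 h of growth at 37 °C in LB with 50 µg/mL chloramphenicol, 10^6 cells were FACS-sorted into 13 fluorescence bins, and each bin was Illumina-sequenced. Repression strength was the top bin index plus one minus the read-weighted mean bin, divided by the value for the unaltered operator. Across three independent transformations, only library members with ≥30 reads in every replicate and a CV ≤0.5 were averaged.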

UniProt P04483, sequence (P04483 whole entry): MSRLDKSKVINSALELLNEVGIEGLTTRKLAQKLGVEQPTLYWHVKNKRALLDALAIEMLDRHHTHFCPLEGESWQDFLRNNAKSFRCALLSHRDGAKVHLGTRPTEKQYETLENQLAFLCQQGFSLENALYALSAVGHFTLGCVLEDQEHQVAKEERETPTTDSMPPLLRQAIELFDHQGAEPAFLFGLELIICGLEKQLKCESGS

Sequence	TetR repression strength
TCCCTTCTAGTGACAGAGA	0.406
TCCCTATGAGTCGCAGAGA	0.226
TCCCAGGCAGTGATAGAGA	0.589
TCCCTAGTAGTTAGGGAGA	0.192
TCCCAACTAGTGGCCGAGA	0.397
TCCCGACTAGTTACAGAGA	0.305
TCCCCGATAGTGCGAGAGA	0.125
TCCCTACGAGTATATGAGA	0.269
TCCCATATAGTTGCAGAGA	0.315
TCCCTGTTAGTTGTTGAGA	0.382
TCCCAGGTAGTGCTCGAGA	0.168
TCCCCCAAAGTCGGCGAGA	0.26
TCCCTTGGAGTGAACGAGA	0.201
TCCCGCACAGTGTGGGAGA	0.317
TCCCCGGAAGTGAGCGAGA	0.143
TCCCGGCGAGTTTTAGAGA	0.406
TCCCCATGAGTAGGGGAGA	0.231
TCCCCTGAAGTCGGCGAGA	0.034
TCCCCAGGAGTGGAGGAGA	0.185
TCCCGCCAAGTCGGAGAGA	0.257
TCCCATGTAGTCTACGAGA	0.3
TCCCTAGGAGTATAGGAGA	0.229
TCCCAAAGAGTATCGGAGA	0.0178
TCCCGTCCAGTGGCAGAGA	0.327
TCCCATCGAGTCATAGAGA	0.342
TCCCCCTTAGTAGAGGAGA	0.187

Sequence	TetR repression strength
TCCCTTCCAGTGCGCGAGA	0.322
TCCCGCACAGTTGGCGAGA	0.0921
TCCCCACTAGTGCAAGAGA	0.438
TCCCGGAAAGTGGCCGAGA	0.253
TCCCGATGAGTTATCGAGA	0.207
TCCCTGCTAGTGAAGGAGA	0.649
TCCCATCCAGTTCGGGAGA	0.241
TCCCTGTAAGTCTCGGAGA	0.314
TCCCTTTCAGTCCTGGAGA	0.262
TCCCCCGAAGTGTCCGAGA	0.329
TCCCAATAAGTGCATGAGA	0.189
TCCCGGACAGTTGGGGAGA	0.922
TCCCTTGTAGTGGGTGAGA	0.122
TCCCGGAAAGTTTGGGAGA	0.523
TCCCATGTAGTGTGGGAGA	0.203
TCCCATTTAGTACGTGAGA	0.271
TCCCATGCAGTGTAAGAGA	0.0957
TCCCAGCTAGTGGTTGAGA	0.0377
TCCCGTTCAGTTGAGGAGA	0.282
TCCCGGTCAGTAGGCGAGA	1.01
TCCCTGGCAGTTCATGAGA	0.199
TCCCAAATAGTTCGGGAGA	0.513
TCCCTGATAGTCGAAGAGA	1.14
TCCCCTCGAGTGCCTGAGA	0.264
TCCCATACAGTCGAGGAGA	0.247
TCCCAATCAGTAGGGGAGA	0.254

Sequence	TetR repression strength
TCCCGGTAAGTGGACGAGA	0.148
TCCCAAGTAGTCACAGAGA	0.231
TCCCGCCCAGTACGCGAGA	0.304
TCCCGTAAAGTGGGGGAGA	0.107
TCCCGCGTAGTAACCGAGA	0.179
TCCCCCGTAGTTGTTGAGA	0.192
TCCCACTAAGTGGATGAGA	0.0817
TCCCTAGTAGTGATCGAGA	0.37
TCCCCGCTAGTGTGAGAGA	0.492
TCCCCATCAGTAAGTGAGA	0.289
TCCCGGGCAGTACTGGAGA	0.444
TCCCTTTGAGTGGAGGAGA	0.102
TCCCGCTAAGTGCGAGAGA	0.155
TCCCATGCAGTAGAGGAGA	0.184
TCCCGTGGAGTTGTGGAGA	0.0653
TCCCCAGGAGTCGTCGAGA	0.438
TCCCGCCTAGTATCAGAGA	0.266
TCCCGGGGAGTGGGTGAGA	0.298
TCCCTATAAGTGAGGGAGA	0.237
TCCCCTGGAGTATTTGAGA	0.253
TCCCGAGGAGTTAGTGAGA	0.397
TCCCCTTGAGTGAGGGAGA	0.308
TCCCCATGAGTGACAGAGA	0.399
TCCCAAGCAGTGAGTGAGA	0.334
TCCCGGTGAGTGATTGAGA	0.388
TCCCCCGAAGTGGCGGAGA	0.17

Sequence	TetR repression strength
TCCCGGGTAGTGGACGAGA	0.231
TCCCCAGGAGTGTTCGAGA	0.253
TCCCAGGAAGTTGAGGAGA	0.218
TCCCTACAAGTCGGTGAGA	0.244
TCCCACATAGTTGCCGAGA	0.254
TCCCGCCCAGTATGGGAGA	0.352
TCCCGTGCAGTTGCCGAGA	0.0811
TCCCTGGTAGTAGGAGAGA	0.189
TCCCGGACAGTTGACGAGA	0.0179
TCCCCCCCAGTGTGGGAGA	0.268
TCCCGTTGAGTGTTCGAGA	0.159
TCCCCCACAGTTATAGAGA	0.524
TCCCAAGAAGTGCTGGAGA	0.21
TCCCCTTGAGTCACTGAGA	0.23
TCCCCCGGAGTCAGGGAGA	0.207
TCCCGGAGAGTGATGGAGA	0.325
TCCCTGTGAGTGGCGGAGA	0.201
TCCCAGGTAGTTTCGGAGA	0.232
TCCCAGTGAGTGGTCGAGA	0.243
TCCCAAGAAGTTCTCGAGA	0.228
TCCCGTAAAGTTTCAGAGA	0.265
TCCCGGCTAGTAAATGAGA	0.464
TCCCAGGTAGTGGATGAGA	0.0304
TCCCACTAAGTGGGGGAGA	0.104
